Publication PMC10668032
The other results are listed elsewhere or left out. At the low end of the ranking the order means little.

Target: SIX1 homeodomain (reference allele) (UniProt Q15475)
Test: universal protein binding microarray
Details: Universal all-10-mer PBM (8x60K, AMADID 030236), 300 nM GST-tagged protein, Alexa Fluor 488 anti-GST; buffer, salt, pH and temperature not stated; high values mean tight binding; most listed sequences are background and not binding sites; double strand, one strand shown

Row | Sequence | binding signal [E-score]
1 | GATGAGAC | 0.207
2 | AAATAAGC | -0.285
3 | CCCCTCTA | 0.177
4 | ACTAAGAC | -0.00729
5 | GCTAATGA | -0.0427
6 | ATCAACTG | 0.0904
7 | CTTGACAC | 0.244
8 | CCTCTCCC | 0.0415
9 | AAAGCGTT | -0.4
10 | ACGGAAGC | -0.13
11 | TCGGCACA | 0.126
12 | ACTGTGCA | -0.0177
13 | GCATGACC | -0.0634
14 | GGATGAGA | 0.212
15 | AAGCATCA | 0.0863
16 | ACCCCGGT | 0.138
17 | ACTGCCGG | 0.0128
18 | GGGTAGGA | 0.0984
19 | CAGAAATC | -0.225
20 | CTCGAGCA | -0.0823
21 | CCGTTTTC | -0.0928
22 | CTAGCCCA | -0.181
23 | GAAGGGAC | -0.157
24 | GTCTGGAA | -0.0546
25 | CGGCTGAG | -0.0535

Row | Sequence | binding signal [E-score]
26 | ACAATGGC | -0.308
27 | ACTACTGA | 0.0187
28 | GTAATAAC | -0.119
29 | GTTGTACA | 0.0321
30 | CCCTGTCC | -0.0634
31 | CCTCGTTA | 0.0644
32 | CCGATTAG | 0.0911
33 | AGCAAAGG | -0.0355
34 | TGTGAGAA | 0.101
35 | AAGGCACC | -0.225
36 | ATGCTATG | 0.124
37 | CGTATCTC | 0.378
38 | GGTGGGCA | -0.0177
39 | CCCCGTTA | -0.104
40 | ATTATGTG | 0.171
41 | CCATGGGC | -0.128
42 | AAGAGGAG | -0.0511
43 | ACAGCTAT | 0.0737
44 | GATTAACC | -0.0534
45 | CCGGGCCA | 0.0113
46 | GGGCGACA | -0.185
47 | CAGGCTGC | -0.168
48 | ATTTGGGA | -0.127
49 | ATAGATTC | 0.0494
50 | GGAGACTA | -0.0757

Row | Sequence | binding signal [E-score]
51 | GCCCATTA | -0.123
52 | CGGATCCC | 0.399
53 | CCGCAGAA | -0.291
54 | AGATGCCC | 0.0608
55 | GCCCCACA | -0.104
56 | AAAGCTTC | -0.276
57 | CTGATCTC | 0.312
58 | AGGTAGCA | -0.0857
59 | ATGGGTCG | 0.0494
60 | ACCATATA | 0.274
61 | ATCCAGGA | 0.141
62 | AGGACTCC | -0.0709
63 | CCGTCGGC | -0.179
64 | GGCCCGTA | -0.0756
65 | ATCATGAA | 0.052
66 | CCTGGCCG | -0.184
67 | TCGCAAGA | -0.0336
68 | AAGCTATG | 0.0235
69 | ATCACTCA | 0.335
70 | AGAGATGA | 0.0527
71 | ACACCGAT | 0.362
72 | GAGCTGGC | -0.208
73 | CGCGTGGC | -0.148
74 | CAACCACA | -0.142
75 | CCATCACC | -0.00905

Row | Sequence | binding signal [E-score]
76 | ACCAGCTC | 0.118
77 | GAACTCTC | -0.322
78 | CGTCCAGC | -0.239
79 | ACCCGAAA | -0.119
80 | AGTTAGGA | 0.0409
81 | CTTCTTCA | -0.121
82 | GACGCTGC | -0.314
83 | CGATGAGA | 0.191
84 | AAAGCCTA | -0.143
85 | CCTATCTC | 0.227
86 | AGTGCGAG | -0.12
87 | CACCCTCC | 0.0223
88 | CGCAACCA | -0.127
89 | CGTTTCAC | -0.0955
90 | AAAGGCAG | -0.112
91 | AGTCTGAA | -0.183
92 | AGCAGTGC | -0.154
93 | CACATCTA | 0.0201
94 | CCAGCTGC | -0.1
95 | AGTCGTAT | 0.221
96 | AACTCTTC | 0.00153
97 | AGCGTGTC | -0.017
98 | CCAACTGG | -0.075
99 | GACGTAGA | -0.148
100 | ATAGGCGC | 0.0386

Row | Sequence | binding signal [E-score]
101 | GCATTCAA | -0.0184
102 | ATGTCCCC | -0.134
103 | AAGTAATA | 0.111
104 | AAAAGGAA | -0.078
105 | AATTAGCC | -0.0433
106 | ACAAGACC | -0.174
107 | AGGAAACC | -0.15
108 | AGTAGGAT | 0.202
109 | GACCCTTA | -0.0114
110 | AAAGCCTC | -0.223
111 | GAGATACC | 0.441
112 | CCCCAATC | 0.148
113 | ATATTACG | 0.159
114 | CCAAGTTC | -0.216
115 | GTCAATCA | -0.142
116 | ACTAATTG | -0.033
117 | ACCTCTCC | -0.00766
118 | ACAGTCCC | -0.134
119 | AGTAAGAG | -0.145
120 | GACCATCC | -0.0836
121 | CACAGTCG | -0.146
122 | GTGCGTAA | -0.136
123 | GAGGATAC | 0.403
124 | ACATACTG | 0.06
125 | AAAGCGTG | -0.256

Row | Sequence | binding signal [E-score]
126 | ACGCGCTG | -0.164
127 | AAGCGGAG | -0.128
128 | CCATCAGG | -0.0931
129 | AGTACTGC | -0.152
130 | AAACTGCA | -0.227
131 | ATACACGC | 0.328
132 | AAGGATAC | 0.405
133 | AGGGAGAT | 0.268
134 | CAAGTTAA | -0.201
135 | AGTATTAG | 0.301
136 | GAACGGCA | -0.158
137 | CACGGGAC | -0.159
138 | GTAGAATA | 0.125
139 | CAGAATAG | 0.00916
140 | ATCCGAGC | 0.24
141 | CATAAAAC | -0.157
142 | CGATTCCG | -0.0104
143 | ACCCCCAG | 0.127
144 | TAGATCCA | 0.227
145 | CAAGGTGC | -0.0768
146 | AGTTTGTG | -0.014
147 | CATAAAAA | -0.182
148 | CCAACGAA | -0.195
149 | GCCTAGAA | -0.0991
150 | AAGGGGGA | 0.125

Row | Sequence | binding signal [E-score]
151 | ATTTCGAG | -0.114
152 | AGGTGCGA | -0.062
153 | GACTTAGA | -0.251
154 | CATTACAA | -0.138
155 | AACGGGAT | 0.243
156 | ATATTTAG | 0.118
157 | AAGTCCAG | -0.23
158 | AGGCGCTC | -0.243
159 | CTGTCCGA | -0.142
160 | ATCGTTTG | 0.196
161 | CATAAGCC | -0.0998
162 | ATGCTCTC | -0.165
163 | CCAGACGA | -0.156
164 | AAGCTGAT | 0.24
165 | TAGGTGGA | 0.0029
166 | GTAGCCCA | -0.137
167 | AAGGGCAT | -0.148
168 | TGACCTCA | -0.123
169 | CACGAGTG | -0.104
170 | ACTAAGGC | -0.271
171 | ACGTGGAC | 0.0224
172 | CAGGGTCG | 0.109
